In all, about 340,000 compounds went through this assay and about 470 (0.14%) were called active. Inconclusive results, whose numbers are uncertain, are shown with a selection of clear calls.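 Rule for the calls: active = mean activation of 30% or more, with every replicate also reaching 30%; inconclusive = mean activation of 30% or more but some replicate falls short; inactive = the rest.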
experiment: small molecules raising miR-122 sensor signal – cell-based, Huh7 psiCHECK-miR122, Renilla luciferase, single point, primary screen (AID 623901); settings: 48 h, at 12.5 µM, active compounds read high;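 note: 0% = median of neutral control wells and 100% = median of positive control wells; higher luciferase signal means stronger suppression of miR-122 activity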

| SMILES | activation |
| --- | --- |
| COc1ccc(C(O)(CC(C)C)C(CN2CCOCC2)c2ccccc2)cc1 (stereo not drawn) | inconclusive: 30.8% |
| Cc1ccc2c(CN3CCCc4ccccc43)cc(=O)oc2c1C | inactive: -147% |
| Cc1ccc(-c2cnc3c(c2)C(=O)N([C@@H](C)CO)C[C@H](C)[C@H](CN(C)Cc2ccccc2F)O3)cc1 | inactive: -0.087% |
| CCNC(=O)C[C@H]1CC[C@@H]2[C@@H](COc3ccc(NC(=O)Nc4cccc(Cl)c4)cc3C(=O)N2C)O1 | inconclusive: 41.7% |
| C[C@@H]1CN([C@H](C)CO)S(=O)(=O)c2ccc(C3=CCCC3)cc2O[C@@H]1CN(C)C(=O)c1cnccn1 | inconclusive: 34.7% |
| COc1cc2nc(C3CCC3)n(NC(=O)C3CCCC(OC)C3)c(=O)c2cc1OC (stereo not drawn) | active: 34.4% |
| Cc1cc2n(n1)C(c1cn(-c3ccccc3)nc1C)Nc1c(C)cccc1-2 (stereo not drawn) | inconclusive: 31.8% |
| CCCNC(=O)C[C@@H]1CC[C@H]2[C@H](COc3ccc(NC(=O)Nc4ccccc4F)cc3C(=O)N2C)O1 | inactive: -100% |
| C/C=C/c1ccc([C@@H]2[C@@H](CO)N(C(=O)C3CC3)[C@H]2CN(C)C(=O)CC2CC2)cc1 | inconclusive: 58.3% |
| CCC(=O)N(C)C[C@@H]1Oc2ncc(C#CC3(O)CCCC3)cc2C(=O)N([C@@H](C)CO)C[C@@H]1C | inactive: -0.276% |
| C/C=C/c1ccc([C@H]2[C@@H](CO)N(C(=O)NC(C)C)[C@H]2CN(C)C(=O)CC)cc1 | inconclusive: 50% |
| CN1C(=O)c2cc(NS(C)(=O)=O)ccc2OC[C@@H]2O[C@H](CC(=O)O)CC[C@H]21 | inconclusive: 35% |
| CCCNC(=O)C[C@@H]1CC[C@H]2[C@H](COc3ccc(NC(=O)c4ccc(C(F)(F)F)cc4)cc3C(=O)N2C)O1 | inconclusive: 35% |
| CCC(=O)N(C)C[C@@H]1Oc2cc(C#C[C@H](C)O)ccc2S(=O)(=O)N([C@H](C)CO)C[C@@H]1C | inactive: 5.93% |
| CN1C(=O)c2cc(NC(=O)Nc3ccccc3F)ccc2OC[C@@H]2O[C@@H](CC(=O)NCc3ccc(-c4ccccc4)cc3)CC[C@H]21 | active: 47.8% |
| CO[C@@H]1CN(C)C(=O)c2ccc(NS(=O)(=O)c3ccc(C)cc3)cc2OC[C@@H](C)N(C(=O)NC(C)C)C[C@H]1C | inconclusive: 33.5% |
| COC(=O)c1cc(NS(=O)(=O)c2ccc3c(c2)CCC(=O)N3)cc(C(=O)OC)c1 | inconclusive: 35.6% |
| CCC(=O)N1[C@H](CO)[C@@H](c2ccccc2)[C@@H]1CN(C)C(=O)CN1CCOCC1 | inconclusive: 58.3% |
| N#Cc1ccc(C(=O)Nc2ccc(N3CCN(C(=O)c4ccco4)CC3)cc2)c(F)c1 | inconclusive: 32% |
| CN(C)c1ccc(/C=C/c2ccc3ccccc3[n+]2C)cc1 | active: 49.1% |
| COc1ccccc1S(=O)(=O)N(C)C[C@H]1Oc2ncc(-c3ccc(C)cc3)cc2C(=O)N([C@@H](C)CO)C[C@@H]1C | inactive: -3.14% |
| CO[C@H]1CN(C)C(=O)c2cc(NS(=O)(=O)CC(F)(F)F)ccc2OC[C@H](C)N(C)C[C@H]1C | inactive: -1.6% |

| SMILES | activation |
| --- | --- |
| COCC(=O)NC[C@H]1[C@@H](c2ccc(C3=CCCC3)cc2)[C@H](CO)N1C(=O)C1CC1 | inconclusive: 33.3% |
| CCn1c(Cl)c(C=O)s/c1=N\S(=O)(=O)c1ccccc1 | active: 72.1% |
| O=C(NC[C@H]1N[C@H](CO)[C@@H]1c1ccc(-c2ccccc2F)cc1)c1ccccc1 | inconclusive: 35.7% |
| Cc1ccc(-c2noc(CCC(=O)Nc3ccccc3C)n2)cc1 | inconclusive: 31.6% |
| COC(=O)c1nn(-c2ccccc2)c(Sc2ccc(Cl)cc2)c1/C=N/O | active: 35.6% |
| CCC(=O)N(C)C[C@H]1Oc2ncc(C#Cc3cccnc3)cc2C(=O)N([C@H](C)CO)C[C@H]1C | inactive: 6.77% |
| C[C@@H]1CN([C@H](C)CO)S(=O)(=O)c2ccc(C#C[C@@H](C)O)cc2O[C@H]1CN(C)Cc1cccnc1 | inactive: 2.1% |
| CCC(=O)Nc1ccc2c(c1)C(=O)N(C)C[C@H](OC)[C@H](C)CN(Cc1ccccc1OC)[C@H](C)CO2 | inactive: 1.17% |
| COc1cccc(NC(=O)N(C)C[C@@H]2Oc3cc(C#Cc4ccccc4)ccc3S(=O)(=O)N([C@H](C)CO)C[C@H]2C)c1 | inactive: 2.33% |
| O=C(Nc1nc(-c2ccc(Oc3ccccc3)cc2)cs1)C1=COCCO1 | inconclusive: 33% |
| C[C@@H]1CN([C@H](C)CO)S(=O)(=O)c2ccc(/C=C/c3ccccc3)cc2O[C@@H]1CN(C)C(=O)c1cccnc1 | inconclusive: 16.9% |
| C[C@@H]1CN([C@@H](C)CO)C(=O)c2cc(-c3ccc(F)cc3)cnc2O[C@H]1CN(C)Cc1ccccn1 | inactive: -0.298% |
| CC(C)OCCCNC(=O)c1ccncc1 | inconclusive: 30.8% |
| O=C(CN1CCN(c2nc(-c3ccccc3)cs2)CC1)Nc1ccc2c(c1)OCO2 | inconclusive: 57.5% |
| COCC(=O)NC[C@@H]1[C@H](c2ccc(C3=CCCC3)cc2)[C@H](CO)N1C(=O)C1CC1 | inconclusive: 50% |
| CCC(=O)N1C[C@@H](C)[C@@H](OC)CN(C)C(=O)c2ccc(NC(=O)C3CCCCC3)cc2OC[C@@H]1C | inactive: 0.432% |
| C[C@H]1CN([C@@H](C)CO)S(=O)(=O)c2ccc(C3=CCCC3)cc2O[C@H]1CN(C)Cc1cccnc1 | inconclusive: 33.7% |
| CCNC(=O)C[C@@H]1CC[C@@H]2[C@@H](COc3ccc(NC(=O)c4ccccc4)cc3C(=O)N2C)O1 | active: 41.7% |
| C[C@@H]1CN([C@H](C)CO)C(=O)c2cc(NC(=O)Nc3cccc4ccccc34)ccc2O[C@@H](C)CCCCO[C@@H]1CN(C)Cc1ccc2c(c1)OCO2 | inconclusive: 33.6% |
| CO[C@H]1CN(C)C(=O)c2cc(NC(=O)NC(C)C)ccc2OC[C@H](C)N(C(=O)NC(C)C)C[C@@H]1C | inactive: -4.62% |
| Cc1cc(C)n(-c2cc(N3CCN(C(=O)c4ccc(C(C)(C)C)cc4)CC3)ccc2[N+](=O)[O-])n1 | inconclusive: 33.3% |
